# Source: the supplement of paper PMC8728848
# Some of the results follow.
# B1: IDGF2 (Drosophila melanogaster), Q9V3D4 (protein)
# chain: MKAWIWFTFVACLFAASTEAASNLVCYYDSSSYTREGLGKLLNPDLEIALQFCSHLVYGYAGLRGENLQAYSMNENLDIYKHQFSEVTSLKRKYPHLKVLLSVGGDHDIDPDHPNKYIDLLEGEKVRQIGFIRSAYDLVKTYGFDGLDLAYQFPKNKPRKVHGDLGLAWKSIKKLFTGDFIVDPHAALHKEQFTALVRDVKDSLRADGFLLSLTVLPNVNSTWYFDIPALNGLVDFVNLATFDFLTPARNPEEADYSAPIYHPDGSKDRLAHLNADFQVEYWLSQGFPSNKINLGVATYGNAWKLTKDSGLEGVPVVPETSGPAPEGFQSQKPGLLSYAEICGKLSNPQNQFLKGNESPLRRVSDPTKRFGGIAYRPVDGQITEGIWVSYDDPDSASNKAAYARVKNLGGVALFDLSYDDFRGQCSGDKYPILRAIKYRLHHHHHH
# Assays:
# Assay in all cases: glycan array binding signal (z-score within array); higher = stronger binding
# Conditions in all cases: glycan notation: IUPAC condensed, linker removed
# [1] = biological target: Gal(b1-4)GlcNAc(b1-6)GalNAc
# Procedure, shortened: (§1)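 From the Consortium for Functional Glycomics database, 3228 arrays were curated, keeping only those whose protein sequence was available. Binding is given as a within-array Z-score averaged across arrays sharing a protein sequence and across linkers. Negative Z-scores can be read as non-binding.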
# [2] = biological target: Gal(b1-4)GlcNAc(b1-6)[Gal(b1-3)]GalNAc
# Procedure, shortened: as §1
# [3] = biological target: Gal(b1-4)GlcNAc(b1-6)[Gal(b1-3)]GlcNAc
# Procedure, shortened: as §1
# Gal3S(b1-3)GalNAc = biological target: Gal3S(b1-3)GalNAc
# Procedure, shortened: as §1
# Gal3S(b1-3)GlcNAc = biological target: Gal3S(b1-3)GlcNAc
# Procedure, shortened: as §1
# [4] = biological target: Gal3S(b1-3)[Fuc(a1-4)]GlcNAc
# Procedure, shortened: as §1
# Gal3S(b1-4)Glc = biological target: Gal3S(b1-4)Glc
# Procedure, shortened: as §1
# Gal3S(b1-4)Glc6S = biological target: Gal3S(b1-4)Glc6S
# Procedure, shortened: as §1
# Gal3S(b1-4)GlcNAc = biological target: Gal3S(b1-4)GlcNAc
# Procedure, shortened: as §1
# Gal3S(b1-4)GlcNAc6S = biological target: Gal3S(b1-4)GlcNAc6S
# Procedure, shortened: as §1
# Gal3S6S(b1-4)GlcNAc = biological target: Gal3S6S(b1-4)GlcNAc
# Procedure, shortened: as §1
# Gal3S6S(b1-4)GlcNAc6S = biological target: Gal3S6S(b1-4)GlcNAc6S
# Procedure, shortened: as §1
# Gal4S(b1-4)GlcNAc = biological target: Gal4S(b1-4)GlcNAc
# Procedure, shortened: as §1
# Gal4S6S(b1-4)GlcNAc = biological target: Gal4S6S(b1-4)GlcNAc
# Procedure, shortened: as §1
# Gal6S(b1-4)Glc = biological target: Gal6S(b1-4)Glc
# Procedure, shortened: as §1
# Gal6S(b1-4)Glc6S = biological target: Gal6S(b1-4)Glc6S
# Procedure, shortened: as §1
# Gal6S(b1-4)GlcNAc = biological target: Gal6S(b1-4)GlcNAc
# Procedure, shortened: as §1
# GalNAc(a1-3)Gal = biological target: GalNAc(a1-3)Gal
# Procedure, shortened: as §1
# GalNAc(a1-3)GalNAc = biological target: GalNAc(a1-3)GalNAc
# Procedure, shortened: as §1
# [5] = biological target: GalNAc(b1-3)Gal(a1-4)Gal(b1-4)GlcNAc
# Procedure, shortened: as §1
# GalNAc(b1-4)GlcNAc = biological target: GalNAc(b1-4)GlcNAc
# Procedure, shortened: as §1
# Glc(a1-4)Glc = biological target: Glc(a1-4)Glc
# Procedure, shortened: as §1
# Glc(a1-6)Glc(a1-6)Glc = biological target: Glc(a1-6)Glc(a1-6)Glc
# Procedure, shortened: as §1
# Glc(b1-4)Glc = biological target: Glc(b1-4)Glc
# Procedure, shortened: as §1
# Glc(b1-6)Glc = biological target: Glc(b1-6)Glc
# Procedure, shortened: as §1
# GlcA(b1-3)Gal = biological target: GlcA(b1-3)Gal
# Procedure, shortened: as §1
# GlcA(b1-6)Gal = biological target: GlcA(b1-6)Gal
# Procedure, shortened: as §1
# [6] = biological target: GlcNAc(a1-3)Gal(b1-4)GlcNAc
# Procedure, shortened: as §1
# [7] = biological target: GlcNAc(a1-6)Gal(b1-4)GlcNAc
# Procedure, shortened: as §1
# [8] = biological target: GlcNAc(b1-2)Gal(b1-3)GlcNAc
# Procedure, shortened: as §1
# [9] = biological target: GlcNAc(b1-2)Man(a1-3)[GlcNAc(b1-2)Man(a1-6)]Man(b1-4)GlcNAc(b1-4)GlcNAc
# Procedure, shortened: as §1
# GlcNAc(b1-3)Gal = biological target: GlcNAc(b1-3)Gal
# Procedure, shortened: as §1
# [10] = biological target: GlcNAc(b1-3)Gal(b1-3)GalNAc
# Procedure, shortened: as §1
# GlcNAc(b1-3)Gal(b1-4)Glc = biological target: GlcNAc(b1-3)Gal(b1-4)Glc
# Procedure, shortened: as §1
# [11] = biological target: GlcNAc(b1-3)Gal(b1-4)GlcNAc
# Procedure, shortened: as §1
# [12] = biological target: GlcNAc(b1-3)Gal(b1-4)GlcNAc(b1-3)Gal(b1-4)GlcNAc
# Procedure, shortened: as §1
# GlcNAc(b1-3)GalNAc = biological target: GlcNAc(b1-3)GalNAc
# Procedure, shortened: as §1
# [13] = biological target: GlcNAc(b1-3)[GlcNAc(b1-4)][GlcNAc(b1-6)]GlcNAc
# Procedure, shortened: as §1
# [14] = biological target: GlcNAc(b1-3)[GlcNAc(b1-6)]Gal(b1-4)GlcNAc
# Procedure, shortened: as §1
# [15] = biological target: GlcNAc(b1-3)[GlcNAc(b1-6)]GlcNAc
# Procedure, shortened: as §1
# [16] = biological target: GlcNAc(b1-4)Gal(b1-4)GlcNAc
# Procedure, shortened: as §1
# [17] = biological target: GlcNAc(b1-4)GlcNAc(b1-4)GlcNAc
# Procedure, shortened: as §1
# [18] = biological target: GlcNAc(b1-4)GlcNAc(b1-4)GlcNAc(b1-4)GlcNAc(b1-4)GlcNAc
# Procedure, shortened: as §1
# [19] = biological target: GlcNAc(b1-4)GlcNAc(b1-4)GlcNAc(b1-4)GlcNAc(b1-4)GlcNAc(b1-4)GlcNAc
# Procedure, shortened: as §1
# [20] = biological target: GlcNAc(b1-4)[GlcNAc(b1-6)]GalNAc
# Procedure, shortened: as §1
# [21] = biological target: GlcNAc(b1-6)Gal(b1-4)GlcNAc
# Procedure, shortened: as §1
# GlcNAc(b1-6)GalNAc = biological target: GlcNAc(b1-6)GalNAc
# Procedure, shortened: as §1
# Kdn(a2-3)Gal(b1-3)GlcNAc = biological target: Kdn(a2-3)Gal(b1-3)GlcNAc
# Procedure, shortened: as §1
# Kdn(a2-3)Gal(b1-4)GlcNAc = biological target: Kdn(a2-3)Gal(b1-4)GlcNAc
# Procedure, shortened: as §1
# [22] = biological target: Man(a1-2)Man(a1-2)Man(a1-3)Man
# Procedure, shortened: as §1
# [23] = biological target: Man(a1-2)Man(a1-2)Man(a1-3)[Man(a1-2)Man(a1-3)[Man(a1-2)Man(a1-6)]Man(a1-6)]Man(b1-4)GlcNAc(b1-4)GlcNAc
# Procedure, shortened: as §1
# [24] = biological target: Man(a1-2)Man(a1-2)Man(a1-3)[Man(a1-2)Man(a1-6)[Man(a1-3)]Man(a1-6)]Man(b1-4)GlcNAc(b1-4)GlcNAc
# Procedure, shortened: as §1
# [25] = biological target: Man(a1-2)Man(a1-2)Man(a1-6)[Man(a1-3)]Man
# Procedure, shortened: as §1
# Man(a1-2)Man(a1-3)Man = biological target: Man(a1-2)Man(a1-3)Man
# Procedure, shortened: as §1
# [26] = biological target: Man(a1-2)Man(a1-3)[Man(a1-2)Man(a1-6)]Man
# Procedure, shortened: as §1
# [27] = biological target: Man(a1-2)Man(a1-3)[Man(a1-3)[Man(a1-6)]Man(a1-6)]Man(b1-4)GlcNAc(b1-4)GlcNAc
# Procedure, shortened: as §1
# [28] = biological target: Man(a1-2)Man(a1-3)[Man(a1-6)]Man(a1-6)[Man(a1-2)Man(a1-3)]Man(b1-4)GlcNAc(b1-4)GlcNAc
# Procedure, shortened: as §1
# Man(a1-3)[Man(a1-6)]Man = biological target: Man(a1-3)[Man(a1-6)]Man
# Procedure, shortened: as §1
binder,measurement,setting,value
B1,glycan array binding signal (z-score),[1],-0.057
same,glycan array binding signal (z-score),[2],0.086
same,glycan array binding signal (z-score),[3],-0.368
same,glycan array binding signal (z-score),Gal3S(b1-3)GalNAc,-0.071
same,glycan array binding signal (z-score),Gal3S(b1-3)GlcNAc,-0.165
same,glycan array binding signal (z-score),[4],0.072
same,glycan array binding signal (z-score),Gal3S(b1-4)Glc,0.154
same,glycan array binding signal (z-score),Gal3S(b1-4)Glc6S,0.076
same,glycan array binding signal (z-score),Gal3S(b1-4)GlcNAc,0.235
same,glycan array binding signal (z-score),Gal3S(b1-4)GlcNAc6S,-0.148
same,glycan array binding signal (z-score),Gal3S6S(b1-4)GlcNAc,-0.015
same,glycan array binding signal (z-score),Gal3S6S(b1-4)GlcNAc6S,-0.362
same,glycan array binding signal (z-score),Gal4S(b1-4)GlcNAc,-0.393
same,glycan array binding signal (z-score),Gal4S6S(b1-4)GlcNAc,-0.386
same,glycan array binding signal (z-score),Gal6S(b1-4)Glc,0.524
same,glycan array binding signal (z-score),Gal6S(b1-4)Glc6S,-0.146
same,glycan array binding signal (z-score),Gal6S(b1-4)GlcNAc,0.196
same,glycan array binding signal (z-score),GalNAc(a1-3)Gal,-0.259
same,glycan array binding signal (z-score),GalNAc(a1-3)GalNAc,-0.398
same,glycan array binding signal (z-score),[5],-0.362
same,glycan array binding signal (z-score),GalNAc(b1-4)GlcNAc,-0.336
same,glycan array binding signal (z-score),Glc(a1-4)Glc,-0.125
same,glycan array binding signal (z-score),Glc(a1-6)Glc(a1-6)Glc,-0.349
same,glycan array binding signal (z-score),Glc(b1-4)Glc,0.145
same,glycan array binding signal (z-score),Glc(b1-6)Glc,-0.388
same,glycan array binding signal (z-score),GlcA(b1-3)Gal,-0.559
same,glycan array binding signal (z-score),GlcA(b1-6)Gal,-0.525
same,glycan array binding signal (z-score),[6],-0.102
same,glycan array binding signal (z-score),[7],0.07
same,glycan array binding signal (z-score),[8],0.063
same,glycan array binding signal (z-score),[9],-0.223
same,glycan array binding signal (z-score),GlcNAc(b1-3)Gal,0.066
same,glycan array binding signal (z-score),[10],-0.24
same,glycan array binding signal (z-score),GlcNAc(b1-3)Gal(b1-4)Glc,-0.024
same,glycan array binding signal (z-score),[11],-0.38
same,glycan array binding signal (z-score),[12],-0.305
same,glycan array binding signal (z-score),GlcNAc(b1-3)GalNAc,0.032
same,glycan array binding signal (z-score),[13],-0.235
same,glycan array binding signal (z-score),[14],-0.522
same,glycan array binding signal (z-score),[15],-0.356
same,glycan array binding signal (z-score),[16],-0.376
same,glycan array binding signal (z-score),[17],-0.299
same,glycan array binding signal (z-score),[18],-0.511
same,glycan array binding signal (z-score),[19],-0.118
same,glycan array binding signal (z-score),[20],-0.349
same,glycan array binding signal (z-score),[21],-0.237
same,glycan array binding signal (z-score),GlcNAc(b1-6)GalNAc,-0.197
same,glycan array binding signal (z-score),Kdn(a2-3)Gal(b1-3)GlcNAc,-0.44
same,glycan array binding signal (z-score),Kdn(a2-3)Gal(b1-4)GlcNAc,-0.485
same,glycan array binding signal (z-score),[22],-0.49
same,glycan array binding signal (z-score),[23],-0.586
same,glycan array binding signal (z-score),[24],-0.038
same,glycan array binding signal (z-score),[25],-0.514
same,glycan array binding signal (z-score),Man(a1-2)Man(a1-3)Man,-0.128
same,glycan array binding signal (z-score),[26],-0.265
same,glycan array binding signal (z-score),[27],-0.427
same,glycan array binding signal (z-score),[28],0.65
same,glycan array binding signal (z-score),Man(a1-3)[Man(a1-6)]Man,-0.527
